Measurements reported in a compilation of properties of binary mixtures (doi:10.1016/j.jct.2008.10.019).
The densities may have been worked out from excess volumes.

Assay: xn = mol fraction of the nth substance listed
Conditions: 100 kPa

CCOS(=O)(=O)[O-].CC[n+]1ccn(C)c1 + CO
mass density [kg/m3]
Conditions	x1 = 0.0338	x1 = 0.0353	x1 = 0.1229	x1 = 0.1234	x1 = 0.2522	x1 = 0.3582	x1 = 0.4449	x1 = 0.4707	x1 = 0.5619	x1 = 0.5665
298.15 K	858.3	860.1	979.5	979.8	1075.7	1123.2	1151	1157.9	1178.7	1179.4
303.15 K	853.7	855.6	975.3	975.6	–	–	–	1154.2	1174.7	1175.5
313.15 K	845.1	847.2	967.2	–	–	1111.7	1140.6	–	–	–
